Experimental data from the supplement of paper PMC10126150.
Sequences with one replicate were seen in a single cluster, so their values are uncertain.

Test system: ATP
Experiment: switch fluorescence ratio, 500 uM ATP over buffer (Cy3 cluster intensity, sum of 5 cycles each) (fold (ratio)); higher = stronger signal-on switching upon ATP binding; sequences stand for … in TCGTCGGCAGCGTCAGATGTGTATAAGAGACAGTTTTTTTTTTTTTTTTTTTTTTTTT…TC
Details: aptamer strand: ATP DNA aptamer (quencher-CACCTGGGGGAGTATTGCGGAGGAAGG + anchor), 100 nM annealed; ATP concentration: 500 uM; one replicate
Outline: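 Clusters with intensities outside 100-1000 RFU were excluded. The remaining Cy3-labelled switching-strand clusters on a modified Illumina MiSeq flow-cell had been annealed to 100 nM quencher-labelled ATP aptamer and imaged in selection buffer, then after 15 min with 500 uM ATP at 22 °C, for five cycles separated by NaOH stripping and re-annealing. The fluorescence ratio, averaged per switch-domain sequence, is each cluster's summed target-cycle Cy3 intensity over its summed buffer-cycle Cy3 intensity.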
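Further: ATP exposure 15 min at 22 °C before imaging.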

| Sequence | switch fluorescence ratio |
| --- | --- |
| AGGTCATGGA | 0.986 |
| TTATCCGTAA | 2.96 |
| AACGCGGGGC | 1.04 |
| TAGCGGCCTA | 1.04 |
| CCTATCATGG | 1 |
| CACAAGAGGG | 1.02 |
| TACGGTGGTT | 0.983 |
| CGCTCCAGAT | 1.08 |
| GGCAACTCTG | 1.01 |
| GAACGTAGTA | 0.934 |
| GATCTGTCTA | 1.01 |
| GTATTGTAGC | 1.05 |
| AGGTTAGACA | 1.02 |
| CACTGTAATA | 1.3 |
| GCGGGGGATA | 1.03 |
| GTCGGTGCTT | 0.981 |
| GAGTCGTCTA | 0.957 |
| CCCGTGCCCC | 1.17 |
| TATGAGACGT | 0.982 |
| CGATATTAAT | 0.946 |
| GACTTACAGG | 1.07 |
| ACTTCGACCT | 1.34 |

| Sequence | switch fluorescence ratio |
| --- | --- |
| GTTTGCCTGA | 1 |
| GCGAGTTTTA | 0.98 |
| ATCTAGTGTC | 0.961 |
| TACTTACACC | 1.39 |
| AATGGGG | 1.02 |
| TAGGCATACT | 3.11 |
| CCCTGGTCTA | 0.967 |
| TCCTTTCCCT | 1.05 |
| TGCGCTGATG | 0.999 |
| GCGCGCGAAA | 1.03 |
| CCGGGCGATT | 1.01 |
| CAAAAAAGGT | 1 |
| CAAAGGATGT | 1.02 |
| GAGCATGGTG | 0.984 |
| GGTGTGCGCA | 0.969 |
| GGGTGGTAAC | 0.99 |
| TTCGGCTTTC | 1.04 |
| TGTCCCAGAT | 1.22 |
| TCGCACCGC | 1.38 |
| TCTGGGCGTA | 1.01 |
| CCCCCCCGAA | 2.08 |
| GCGAGTTGCT | 1.02 |

| Sequence | switch fluorescence ratio |
| --- | --- |
| GTATCCGCGG | 1.08 |
| AGTAATTAA | 0.971 |
| GCGACTAGTG | 0.955 |
| AAACTTACAC | 1.16 |
| CATTGGCTAG | 1.01 |
| CTCACAAATT | 0.99 |
| CTGGGTGGC | 0.885 |
| CTGAGTACGG | 1.06 |
| ATGGGCACTG | 1.01 |
| ACCAGGTGCG | 3.18 |
| AGACCAGCG | 1.01 |
| ATCGTCAGGG | 1 |
| TACTAAGGCG | 1.03 |
| GGAAGGCATG | 1.04 |
| TTACTTT | 1 |
| GTCGCCCAGC | 0.995 |
| TCATGTCCTT | 0.992 |
| TGCTCGGGTG | 1.33 |
| GAAGTATTGC | 1.02 |
| CATAGAACAG | 1.02 |
| TCTCGCGAG | 0.977 |
| CAGGTGCGAG | 1.01 |

| Sequence | switch fluorescence ratio |
| --- | --- |
| GACTTAAAT | 0.99 |
| GGTTCACTCG | 1.1 |
| TACCCAATGT | 0.99 |
| CATTCTGACT | 1.01 |
| TTGCTGCATT | 0.99 |
| TAGTATTAGT | 0.976 |
| TACATAGATA | 0.991 |
| CGAAGGTGTA | 1.05 |
| CTCCAACTTT | 1.06 |
| CCTGAAGAGC | 1.02 |
| TCAATCAGA | 0.933 |
| ATACGTTGGG | 0.976 |
| AACATGGCAA | 1.02 |
| TTTCACGGCG | 0.986 |
| ATAGCCCGCA | 0.995 |
| CTCGATATGG | 1.05 |
| TTCGGGTAGC | 1.02 |
| ACTATCACGT | 1.19 |
| AAGCGGGCCC | 0.959 |
